# Measured values from the supplement of paper PMC12632987.
# In all, about 2,300 sequences were measured (“median log2 fold change of GCK-ALFA target abundance (FLAG IP / Myc IP barcode read proportion)”: median about 0.095, lowest 2% from about -0.47 on). Some of the results follow.
# B1: LC3A_28_1047 (protein)
# chain: SELEENAEKAIAEARKQLEQGEEAVVTLKVPDMPTEEAVRIFRETLERLIALSKEYGGKKISVVVDFDGDQETFDAIVDIAEEAEKADPNLTVIVALSEE
# B2: LC3A_28_888 (protein)
# chain: SEALESAKKALEEVEKAVAAGDQSPLVLEVKAPSTEEDTEKFIELLEKIAEAASKLSKVTIIIDISEEVSQENKDKIIDKAEEIEKKYPNVTVIIALPES
# B3: LC3A_28_998 (protein)
# chain: MEIEEQLKKALAEAKAAAAAGEPTVITINVPGDADEEDIERVIKTMEEIAEILKDVKGSAIVIDVDGKLKQEYLDRLLDKAEEIEKKYPNVTVIIALDED
# B4: LC3A_3_1527 (protein)
# chain: FEEIRKEILELLKEAGADPETIKTAEEALDLLEERGYEEAAKTFLEEVKELAGISPETLAAFVEDVLELLKTEDLDEEELSERIKEIARIERNAAEIEEL
# B5: LC3A_free_39_2258 (protein)
# chain: AEARRAAALARLEELAAKASPEVRAAVLALAEEIRDDVEALERLTELLERALKKGPEVVAILGEFAKEAVARIRAGAPREEAVEEMFKLAEAAIEIEEID
# B6: LC3A_28_1006 (protein)
# chain: SALEKQLKEALEQARKAAAAGEPVVITITVGGDATEEDIKKVIEAMKEIAEILKDIPGSAIIIDIDSKLSEEHKNKLIDAAEEIEEKYPNITVIIALDED
# B7: LC3A_16_529 (protein)
# chain: SAEHEETLALFSKALNALETDPEAAIAELAKIDPEAAAKARAALEAGKPKSELAKIFAETVRKYIEENKDELSEEELTLLEMIAESFDLLSELALVREEK
# B8: LC3A_28_1115 (protein)
# chain: SAIDENLAAARAEARAAAAAGEPVVVTIRVRATDSEEDIDRVIAELREIADILKDVKDAAIIIDLDGEIPEEHLNRLMDEGDEIEEKYPNITVIFALDEN
# B9: LC3A_3_1878 (protein)
# chain: MDERIEETIKLLKEAGKSEETIELFKEVMELLKERGWYEAAETLIEEVKKLIDAPEEILLEFLEEVLELIKNEDLSEEELIKRIKELARLARNESEIIEL
# B10: LC3A_45_1949 (protein)
# chain: MWRATVDVLVPEEEFEKAVEVLREEAERLEKERGVKVEIDEEALKKAREEAKENGEGLITVNVYHEDKDVALDAADEISDRLEEELSSKVATIISVEEVP
# B11: LC3A_28_921 (protein)
# chain: MTAEEIIAEIKKIADEAIAKGEDAFIEVKIDSSHTVEEAEAIMEEIEEEVKKLNEAGLKVDIVIDLDNVSQEVLDAVAERAEEIEKKYPNVNVVIALDEE
# B12: LC3A_free_8_2530 (protein)
# chain: NVQEMVNLALEELDRLEELAVKKAKELGLSRTDILELELVIGSAKIEIIEASDKSKEEILKLFNEELDEIVEEAAKYGEELEKAVREKAEEARKRMEEAL
# B13: LC3A_132_283 (protein)
# chain: DAAKTAALIAKVKALFAAAKAAADDDEKTAALLKEAKAYLKEVEATETPETQAAVFAAAADEYDALAALLDAAGKEDLALEADSLSIEAASLSIRAEKKI
# B14: LC3A_45_1998 (protein)
# chain: MYEITVDLLGPKEKVEKAVKLIKETAKKLSEETGIKIEIDEELAKASFEASRDEEEVYVRIKITIDGDEEDANKLVQELDKVLEEVGPGLSSIISVEEIE
# B15: LC3A_132_253 (protein)
# chain: SKELLEKALKELKEILDKIVELLQAGKDPWPAIKELYEKALEYAKKLSLEETEKLAEEVEAYAEKLFAERLDPNNEEARRALEHIEMLLESVLIEKELRS
# B16: LC3A_28_1085 (protein)
# chain: GKLEENLKKAIEEAKEAAAKGEEVVITITVDDTATEEDLEKALKTMEEIAEITKDLPRTTIIVDLNGSRQQEKADIFGEKADELEKKYPHLTVIIALDEE
# B17: LC3A_28_1219 (protein)
# chain: MKVEEEIKKAREELEKAKAAGEEALIRVEVTGSFTVEEAEELMEKLRELVKEAKDLPAVSIVIDVDGKVSQEVIDKIAEKADEIEEEFPNVTVLIALDEE
# B18: LC3A_3_1728 (protein)
# chain: MEEKLAAYEARIAALGLSPEVAAAALRTVRALLEKGLEEQADRLLEVLAENKDADEERLLAHLDDILRLLETDKSSKEELAKKVAEEIEVFANDGEIEEL
# B19: LC3A_16_528 (protein)
# chain: RAEARRALELLLAADRALETDEAAFIAAVAQLDPEAAKRAEAARGKPDARGTFATILRELAEAFRARYGDVLTPEELQTVENIATAAEMEAELTAVRLEE
# Target: MAP1LC3A, Q9H492
# Experiment: median log2 fold change of GCK-ALFA target abundance (FLAG IP / Myc IP barcode read proportion) (log2 ratio); each designed protein is fused to an ALFA-tag nanobody in HEK293 cells to bring the named protein to FLAG-tagged glucokinase (GCK); Myc marks an untargeted standard; higher = target protein stabilised (more abundant)
# Conditions: target protein: 3xFLAG-MCP-GCK-ALFA reporter; HEK293 landing pad (RPLP)
# How it was run: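 Binders fused to an ALFA nanobody were recombined as a library into HEK293 landing-pad cells, which were induced with 2 μg mL^−1 doxycycline and then transfected to express a FLAG-tagged target and a Myc-tagged standard. After 48 h, circular RNA barcodes recovered by anti-FLAG and anti-Myc immunoprecipitation of lysates were reverse transcribed, amplified and sequenced. Each binder's target abundance is the median log2 ratio of FLAG to Myc barcode read proportions, from barcodes present at ≥10^−7 in both replicates, binders carrying ≥3 barcodes per replicate, a 10^−6 pseudocount and pooled replicates.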
row,Binder,median log2 fold change
1,B1,-0.153
2,B2,0.0255
3,B3,-0.431
4,B4,0.345
5,B5,0.28
6,B6,-0.0818
7,B7,0.0209
8,B8,-0.341
9,B9,0.199
10,B10,0.0651
11,B11,-0.0386
12,B12,0.118
13,B13,0.184
14,B14,0.273
15,B15,0.0444
16,B16,0.034
17,B17,0.0823
18,B18,0.298
19,B19,0.328
